Results published in PubChem BioAssay (NCI).
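These data come from cells grown in 96-well plates and exposed to compound for 48 hours at five concentrations. Abbreviation: GI50, concentration required for 50% inhibition of growth. TGI: concentration producing complete growth inhibition.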

System: NCI-H322M lung
Assay: NCI anticancer screen, dose series, 48 h

**Q.** Which GI50 does the source give for `COc1c2c(cc3c1C(CCc1ccccc1)N(C)CC3)OCO2` (stereo unspecified) here?
**A.** 10.9 µM

**Q.** What about the TGI of the same molecule?
**A.** > 100 µM

**Q.** Which results are given for `Cc1ccc2c(c1)/C(=C/C(=O)c1cc3ccccc3oc1=O)C(=O)N2`?
**A.** GI50: > 100 µM; TGI: > 100 µM

**Q.** For `COc1ccc(NC(=O)Cn2c(/C=C/c3ccc(N(C)C)cc3)nc3ccccc3c2=O)cc1`, which GI50 is on record?
**A.** 18.1 µM

**Q.** What about the TGI of the same molecule?
**A.** > 100 µM
